This is one part of the list. The list includes weakly bound sequences.
What follows are sequences tested against MaxL homodimer (UniProt P61244) (assay: universal protein-binding microarray (PBM)). Settings: PBS-based mixture, 10 nM His-tagged protein dimer, 2% milk, 200 ng/uL BSA, 50 ng/uL salmon testes DNA, 0.02% TX-100; detection with Alexa 488 anti-His …; high values mean tight binding; most listed sequences are background and not binding sites; double strand, one strand shown.
UniProt P61244, sequence (P61244 whole entry): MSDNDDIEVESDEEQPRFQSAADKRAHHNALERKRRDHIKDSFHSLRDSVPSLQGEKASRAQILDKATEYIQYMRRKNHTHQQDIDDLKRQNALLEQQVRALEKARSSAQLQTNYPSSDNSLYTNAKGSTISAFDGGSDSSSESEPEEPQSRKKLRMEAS

Row | Sequence | binding signal (normalized occupancy)
1 | CCTGCATC | 0.0807
2 | ACAGCACT | 0.0758
3 | CGGGATAG | 0.0804
4 | CGCACACG | 0.0921
5 | CTCAACGA | 0.0706
6 | CAATACCC | 0.0831
7 | CGTCAAGA | 0.0686
8 | ACGCTAAA | 0.0744
9 | CTATCTTA | 0.0742
10 | GAGGAACA | 0.0707
11 | CGAGGACC | 0.08
12 | CATTCTCA | 0.0837
13 | CATATACG | 0.0868
14 | AAGACAGA | 0.0712
15 | AGATCCTG | 0.0678
16 | TGGGAAAA | 0.0766
17 | CCCGACAG | 0.0712
18 | ACTCCTAT | 0.0765
19 | CCGACTCG | 0.0708
20 | CCCTAAAA | 0.076
21 | CGCAAGCA | 0.0691
22 | CAATCGTG | 0.0825
23 | ACCGACGC | 0.0744
24 | GATAGCCC | 0.0734
25 | CAGAAACG | 0.069

Row | Sequence | binding signal (normalized occupancy)
26 | ATAGACGG | 0.0755
27 | GAAGCTTA | 0.0739
28 | CGGGTAAA | 0.0764
29 | AAACTGCC | 0.0756
30 | TCCTAGCA | 0.0789
31 | GAACTAAA | 0.071
32 | CGAGACCG | 0.0657
33 | AACGCGCG | 0.0803
34 | CTCATCAG | 0.0756
35 | AACAAACT | 0.0702
36 | GTGAGTGA | 0.0775
37 | CATTCAAG | 0.0736
38 | AAACGATA | 0.0767
39 | GCGGGCAA | 0.067
40 | AAAAGTGG | 0.0712
41 | CACCACTA | 0.0802
42 | GGTAGACA | 0.0778
43 | AGATAGCG | 0.0754
44 | ACGAGTGA | 0.0751
45 | CGGGGCAA | 0.0751
46 | AACCCAGC | 0.0697
47 | AGTCCCTC | 0.0709
48 | TTAAGAAA | 0.0708
49 | ATCAGCTC | 0.0718
50 | AAAGCTTG | 0.0676

Row | Sequence | binding signal (normalized occupancy)
51 | CTAGTTAC | 0.073
52 | AATTCAGG | 0.0744
53 | GATCGATC | 0.0774
54 | CAAGGGTC | 0.0697
55 | AGTGAGGC | 0.0749
56 | GAATATAC | 0.0866
57 | AGCTTATG | 0.0729
58 | CCACCACG | 0.0914
59 | GGCCGACC | 0.0667
60 | CATAAGAC | 0.086
61 | GGGTACAA | 0.0783
62 | GCTTTAGA | 0.0698
63 | CGATCAGA | 0.0735
64 | AGCTTACG | 0.0724
65 | CCGGGAGC | 0.0624
66 | CAGTCGGC | 0.0653
67 | AGCGCCAC | 0.0747
68 | GCGTTGAC | 0.0751
69 | CGATTATC | 0.075
70 | AAGGTCGA | 0.0707
71 | AAAATCAC | 0.0808
72 | CCATCTTA | 0.077
73 | CACTGAAC | 0.0713
74 | CACGATAA | 0.0805
75 | AACCGCTC | 0.0709

Row | Sequence | binding signal (normalized occupancy)
76 | GAAAAGGC | 0.0727
77 | TACACGCA | 0.0926
78 | TCGTCTCA | 0.0755
79 | CGAGGACG | 0.069
80 | CGTCTGAG | 0.0733
81 | GCATCACA | 0.0871
82 | GCTTATGA | 0.0811
83 | GGCGCGGA | 0.0714
84 | GCGTGAAA | 0.086
85 | TAGTATAA | 0.0804
86 | CTATTGCC | 0.0756
87 | AGCAAGTA | 0.0754
88 | GTACAGGA | 0.0727
89 | ATTGGGTC | 0.0736
90 | AAACTAAT | 0.075
91 | AGAATGTG | 0.0881
92 | AGGATACA | 0.0757
93 | ACGTAAAT | 0.0785
94 | CGCCTACA | 0.08
95 | AACTTAAA | 0.0737
96 | GGCGGGTA | 0.0717
97 | CGGGCCGC | 0.0695
98 | ATGGGGGA | 0.0883
99 | GATTGGCC | 0.0718
100 | ATTCTCGG | 0.0684

Row | Sequence | binding signal (normalized occupancy)
101 | AGGCTACT | 0.0703
102 | CGCAAGTA | 0.0753
103 | ATACGCGG | 0.0737
104 | ATACACTA | 0.0782
105 | AACGACGA | 0.066
106 | GTGGGAAC | 0.0793
107 | AATTCTGT | 0.0728
108 | CGTGTCAG | 0.0836
109 | CCGGCATA | 0.0739
110 | TGTTGCAA | 0.0777
111 | TAATCATA | 0.083
112 | TCTCGCAA | 0.0719
113 | CCGCTTCG | 0.0724
114 | CCCAGCTC | 0.07
115 | AAATCATC | 0.0766
116 | CTTTCAAC | 0.0766
117 | GCTAGTAA | 0.0712
118 | TATACACA | 0.0878
119 | CGGTATGA | 0.0797
120 | CATCATCC | 0.0857
121 | TACTAGGA | 0.0746
122 | ACGGGGAA | 0.0731
123 | CTGTAAGC | 0.0743
124 | CGCAGACG | 0.0715
125 | CTCTTTGC | 0.0727

Row | Sequence | binding signal (normalized occupancy)
126 | AAAGCCGA | 0.0686
127 | AGTTACCG | 0.0727
128 | CGACTCTA | 0.0706
129 | ATTTTATG | 0.0765
130 | GGGATTAC | 0.0757
131 | GAGCGCCC | 0.0681
132 | ATTAGGCA | 0.0745
133 | CTATTTTA | 0.076
134 | CAGCTAGG | 0.0679
135 | GTTCTTTA | 0.0744
136 | TGAATGCA | 0.0803
137 | AACCGGTT | 0.0671
138 | GCCTGCTA | 0.0731
139 | GTCATTAA | 0.0778
140 | GCGTCATA | 0.0757
141 | AGGCCTAA | 0.0731
142 | CACTGTGC | 0.0763
143 | AAGTGCCC | 0.0681
144 | ACGGTGGA | 0.0765
145 | TGTTACAA | 0.0777
146 | ACCGATCC | 0.0719
147 | ACTTCTGC | 0.0739
148 | AAATGAAT | 0.0799
149 | CTTGCCTC | 0.0729
150 | AGCGTGAG | 0.091

Row | Sequence | binding signal (normalized occupancy)
151 | GCTCTGCC | 0.068
152 | TAGTTCAA | 0.0704
153 | TCGGATAA | 0.0744
154 | TATCTGAA | 0.0761
155 | CCACTACG | 0.0744
156 | GCACCCTA | 0.0771
157 | GAGATGAC | 0.0732
158 | AGAGAATA | 0.0764
159 | ACACGTCT | 0.0781
160 | CGACCTAC | 0.0709
161 | ATGGACAA | 0.0766
162 | ACCTGACT | 0.0799
163 | ATCTTTTG | 0.0753
164 | CCTAGTCA | 0.077
165 | AAAGACCC | 0.0703
166 | GATGCGCC | 0.0717
167 | ATTCGTCA | 0.0752
168 | CTGTCAAA | 0.0735
169 | AAACCCGG | 0.0665
170 | ACCACATC | 0.0807
171 | ACTCTCCT | 0.0789
172 | CGCCCTAG | 0.0675

— paper PMC4242493
